Data as given in article PMC4336329 (PLoS ONE, 2015).
In all, about 310,000 compounds went through this assay and about 14,000 (4.5%) showed an effect of 50% or more. The effect is printed as a negative number. The list shows a part of the results.

Target: human ether-à-go-go-related gene (hERG) potassium channel (human, UniProt Q12809)
Test: primary screen, population patch clamp on CHO cells stably expressing hERG
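Further: peak tail current of the secondary pulse compared with the same well before compound.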

Sequence of human ether-à-go-go-related gene (hERG) potassium channel (Q12809 whole entry, looked up): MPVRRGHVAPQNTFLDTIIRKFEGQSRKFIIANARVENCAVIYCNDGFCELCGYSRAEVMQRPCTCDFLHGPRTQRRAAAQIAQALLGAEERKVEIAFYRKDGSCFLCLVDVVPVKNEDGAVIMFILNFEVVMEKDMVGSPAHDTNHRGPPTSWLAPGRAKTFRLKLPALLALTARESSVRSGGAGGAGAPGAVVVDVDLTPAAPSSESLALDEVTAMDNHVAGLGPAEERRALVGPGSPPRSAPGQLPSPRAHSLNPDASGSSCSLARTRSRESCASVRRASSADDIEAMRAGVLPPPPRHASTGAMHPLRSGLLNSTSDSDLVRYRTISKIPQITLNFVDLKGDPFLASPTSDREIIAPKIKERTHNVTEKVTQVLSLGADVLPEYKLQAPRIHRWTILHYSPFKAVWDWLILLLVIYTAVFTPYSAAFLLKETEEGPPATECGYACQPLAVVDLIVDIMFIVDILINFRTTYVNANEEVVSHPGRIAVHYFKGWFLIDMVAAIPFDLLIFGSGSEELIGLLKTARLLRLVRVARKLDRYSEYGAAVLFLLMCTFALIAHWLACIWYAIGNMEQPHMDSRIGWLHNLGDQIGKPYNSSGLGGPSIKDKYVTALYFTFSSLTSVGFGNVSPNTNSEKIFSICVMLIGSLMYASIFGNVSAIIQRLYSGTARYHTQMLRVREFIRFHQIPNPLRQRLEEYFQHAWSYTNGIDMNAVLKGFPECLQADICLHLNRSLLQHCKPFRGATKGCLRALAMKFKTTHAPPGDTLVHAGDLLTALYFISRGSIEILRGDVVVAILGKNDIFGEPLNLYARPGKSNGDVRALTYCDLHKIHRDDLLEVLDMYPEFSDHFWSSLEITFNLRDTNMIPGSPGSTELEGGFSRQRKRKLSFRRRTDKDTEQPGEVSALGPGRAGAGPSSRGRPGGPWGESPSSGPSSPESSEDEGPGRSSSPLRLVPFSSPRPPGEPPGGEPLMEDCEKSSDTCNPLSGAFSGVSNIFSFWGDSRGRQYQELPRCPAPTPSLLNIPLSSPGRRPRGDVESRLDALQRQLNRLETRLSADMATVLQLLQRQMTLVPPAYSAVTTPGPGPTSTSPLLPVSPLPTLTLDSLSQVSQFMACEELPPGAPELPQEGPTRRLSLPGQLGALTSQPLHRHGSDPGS

| SMILES | hERG current change (%, negative = inhibition) at 10uM |
| --- | --- |
| Cc1ccc(C(=O)Nc2ccc3c(c2)OCO3)cc1S(=O)(=O)N1CCCCC1 | -18.8% |
| O=C(NCc1ccccn1)c1cccn1-c1ncc(C(F)(F)F)cc1Cl | 8.89% |
| COc1ccccc1N1CCN(S(=O)(=O)c2c[nH]c(=O)[nH]c2=O)CC1 | -27.1% |
| Cc1csc(NC(=O)c2ccccc2)n1 | 16.8% |
| O=C(/C=C/c1ccc([N+](=O)[O-])cc1)NCCc1ccccc1 | -14.4% |
| COc1ccc(C2(O)CCN(Cc3nnnn3Cc3ccc(F)cc3)CC2)cc1 | -30.5% |
| Cc1ccc(C(=O)NCCN2CCOCC2)cc1C | 18.2% |
| CCOC(=O)Cc1nnc(NC(=O)COc2ccc(C)cc2)s1 | 5.07% |
| COc1cc(/C=C(/C#N)c2ccc(C)cc2)ccc1Oc1ccc([N+](=O)[O-])cn1 | -5.81% |
| O=c1[nH]c(=O)n(CCC2=CCCCC2)c(O)c1/C=N/Nc1ccccc1 | 14.8% |
| CCOc1ccc2nc(CN3CCN(Cc4ccsc4)C(CCO)C3)ccc2c1 (stereo not drawn) | -47% |
| COc1ccccc1NS(=O)(=O)NC(=O)c1cn(C)c2ccccc12 | 16.8% |
| O=C(c1cccc(C(F)(F)F)c1)C1CCCN(Cc2ccccc2O)C1 (stereo not drawn) | -29% |
| O=C(NC1CCCC1)c1ccc2nc(-c3ccco3)c(-c3ccco3)nc2c1 | -40.5% |
| O=[N+]([O-])c1ccc(CS(=O)(=O)c2ncn[nH]2)cc1 | 20.9% |
| CC(C)C(=O)N(Nc1nc2ccccc2s1)C(=O)C(C)C | -0.224% |
| NC(=O)CSc1cn(CCNC(=O)c2cccs2)c2ccccc12 | 7.26% |
| O=C(Nc1cccc(F)c1)NC1(C(=O)N2CCC(O)CC2)CCCCC1 | 16.2% |
| Cc1csc(NC(=O)CCC(=O)N(CC(=O)NC2CCCC2)c2ccccc2)n1 | -3.43% |
| CCc1ccc(S(=O)(=O)NC2CCCCNC2=O)cc1 (stereo not drawn) | 6.65% |
| CCc1ccc(N(CC(=O)Nc2ccccc2C(=O)N2CCOCC2)S(C)(=O)=O)cc1 | -10.1% |
| CC(=O)c1ccc(S(=O)(=O)NC2CC(=O)N(c3ccc4c(c3)OCCO4)C2)cc1 (stereo not drawn) | 5.79% |
| CCOc1ccc(C(c2c(O)nc(SC)n(C)c2=O)c2c(O)nc(SC)n(C)c2=O)cc1 | -0.68% |
| O=C(O)Cc1sc(Nc2ccccc2)nc1-c1cccs1 | 8.31% |
